Assay results taken from PMC4336329 (PLoS ONE, 2015).
The campaign covered roughly 310,000 compounds. About 14,000 (4.5%) showed an effect of 50% or more. Effects have a minus sign here. Some of the results follow.

Each molecule was assayed against human ether-à-go-go-related gene (hERG) potassium channel (human, UniProt Q12809) (assay: primary screen, population patch clamp on CHO cells stably expressing hERG).
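Note: peak tail current of the secondary pulse compared with the same well before compound.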

human ether-à-go-go-related gene (hERG) potassium channel, sequence (Q12809 whole entry, looked up): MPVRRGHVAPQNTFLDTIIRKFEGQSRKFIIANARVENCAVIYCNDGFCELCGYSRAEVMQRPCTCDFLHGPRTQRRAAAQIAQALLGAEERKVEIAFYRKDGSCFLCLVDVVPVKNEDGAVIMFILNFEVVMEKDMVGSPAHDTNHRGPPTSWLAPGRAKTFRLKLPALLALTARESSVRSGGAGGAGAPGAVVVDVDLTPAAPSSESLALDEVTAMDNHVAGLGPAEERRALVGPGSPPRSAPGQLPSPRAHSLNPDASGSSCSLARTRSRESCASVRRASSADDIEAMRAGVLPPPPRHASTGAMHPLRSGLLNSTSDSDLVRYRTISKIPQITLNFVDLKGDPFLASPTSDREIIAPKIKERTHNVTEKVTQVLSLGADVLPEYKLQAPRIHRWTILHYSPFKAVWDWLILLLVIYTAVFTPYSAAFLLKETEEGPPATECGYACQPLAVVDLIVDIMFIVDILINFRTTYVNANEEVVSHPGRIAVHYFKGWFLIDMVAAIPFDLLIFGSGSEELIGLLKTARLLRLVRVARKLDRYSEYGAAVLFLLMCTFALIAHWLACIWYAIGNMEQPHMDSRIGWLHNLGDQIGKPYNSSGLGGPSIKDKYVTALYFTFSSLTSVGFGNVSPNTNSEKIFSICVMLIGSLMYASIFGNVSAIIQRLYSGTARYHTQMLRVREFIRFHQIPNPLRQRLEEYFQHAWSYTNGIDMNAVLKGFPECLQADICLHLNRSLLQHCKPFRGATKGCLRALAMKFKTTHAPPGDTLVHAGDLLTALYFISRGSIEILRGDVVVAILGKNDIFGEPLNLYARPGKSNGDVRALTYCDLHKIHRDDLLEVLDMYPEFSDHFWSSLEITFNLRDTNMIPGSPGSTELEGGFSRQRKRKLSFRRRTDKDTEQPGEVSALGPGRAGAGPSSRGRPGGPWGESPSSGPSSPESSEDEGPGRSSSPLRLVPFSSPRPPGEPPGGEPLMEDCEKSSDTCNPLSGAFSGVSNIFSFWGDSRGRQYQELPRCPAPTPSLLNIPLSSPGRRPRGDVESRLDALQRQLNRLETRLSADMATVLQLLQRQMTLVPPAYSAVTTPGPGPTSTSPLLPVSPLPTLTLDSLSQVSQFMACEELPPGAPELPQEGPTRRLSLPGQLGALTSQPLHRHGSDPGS

Structure (SMILES)	hERG current change (%, negative = inhibition) at 10uM [%]
Cc1cc(O)c(-c2cc(C(=O)NCCc3ccc(S(N)(=O)=O)cc3)[nH]n2)cc1C	15.3
CN(c1ccc(F)cc1)S(=O)(=O)c1ccc(Cl)c(C(=O)Nc2ccncc2)c1	-6.91
O=C(Nc1ccc(Cl)cc1)c1cnc(-c2ccccc2)nc1-c1ccccc1	-1.24
CC(=C\c1ccco1)/C=C(\C#N)C(=O)NCCc1c[nH]c2ccccc12	-4.55
CC(=O)Nc1ccc(S(=O)(=O)N(C)CC(=O)Nc2ccccc2N2CCCC2)cc1	1.47
Cc1csc(NC(=O)COc2ccc3c(C)cc(=O)oc3c2)n1	-1.87
COC(=O)c1sc2ccccc2c1NC(=O)c1coc2ccccc2c1=O	9.05
O=C(O)C1CC(=O)N(c2ccc(OCc3c(F)cccc3Cl)cc2)C1 (centres unmarked)	13.1
CC(C)N(Cc1nc(-c2ccccc2)no1)S(=O)(=O)c1ccccc1	-7.82
CN(Cc1ccco1)S(=O)(=O)c1ccc(CN2C(=O)c3cccnc3C2=O)s1	-63.4
Cn1c(SCc2n[nH]c(=S)o2)nnc1-c1ccccc1	3.69
Cc1cc2c(cc1C)[n+](C)cn2CC(O)COCC1CC=CCC1.[I-] (centres unmarked)	1.25
O=C1c2ccccc2C(=O)N1CC1=NCCc2ccccc21	20
CC(C)C(=O)NC(NC1CCS(=O)(=O)C1)C(Cl)(Cl)Cl (centres unmarked)	14.8
CCc1ccc(-c2nc(-c3ccncc3)no2)cc1	-1.8
Cc1cc(C)c(NS(=O)(=O)c2ccc(NC(=O)/C=C/C(=O)O)cc2)c(C)c1	2.4
O=C(CNc1ccc(F)cc1)N/N=C1\CCc2ccccc21	0.266
O=C(NCc1ccccn1)C1CN(S(=O)(=O)c2ccccc2)CCN1S(=O)(=O)c1ccccc1 (centres unmarked)	6.49
O=C(NNC(=S)NCc1ccccc1)c1cccnc1	10.6
COc1ccccc1C(=O)Nc1nnc(SCC(=O)Nc2ccc3c(c2)oc2ccccc23)s1	9.85
COc1ccc(/C=N\NC(=O)c2nn(C)cc2Cl)cc1CN1CCOCC1	-10.6
O=C(CCS(=O)(=O)c1cccc2nsnc12)N1CCN(c2ccccc2F)CC1	-30.3

Structure (SMILES)	hERG current change (%, negative = inhibition) at 10uM [%]
CCC(C(=O)NCc1ccco1)N(C(=O)CNS(=O)(=O)c1ccccc1)C1CCCCC1 (centres unmarked)	-22.1
C#CCOC(=O)c1ccccc1C(=O)n1nnc2ccccc21	-0.66
CCn1c(CC(=O)Nc2cccc(Cl)c2Cl)nnc1SCCOc1ccc(OC)cc1	5.96
COc1cc(C(=O)NCCC(=O)NC(C)CCc2ccccc2)cc(OC)c1OC (centres unmarked)	-9.11
CCOc1ccc(NC(=O)Nc2ccon2)cc1	16.7
O=C(Nc1ccc(F)cc1)C1CCN(c2ncnc3c2nc2n3CCCCC2)CC1	-7.35
COc1ccc(NC(=O)CN2C(=O)C(c3ccccc3)=NC23CCCCCC3)cc1	-0.13
N#Cc1c(-c2ccccc2)nc(SCC(=O)Nc2nnc(C(F)(F)F)s2)[nH]c1=O	5.59
CCOc1cc2[nH]c(=S)n(CCN3CCC(C)CC3)c(=O)c2cc1OCC	-51.2
CN(Cc1ccccc1)Cc1nc2c([nH]1)c(=O)[nH]c(=O)n2C	-4.37
CC(C)C1=CC2=CCC3C(C)(C(=O)[O-])CCCC3(C)C2CC1.CC(C12CC3CC(CC(C3)C1)C2)[N+](C)(C)C (centres unmarked)	-1.16
Cc1ccc2cc(C(c3nnnn3C3CCCC3)N3CCN(c4ccccc4)CC3)c(=O)[nH]c2c1 (centres unmarked)	-26.1
O=C(C/C=N\OCc1ccc([N+](=O)[O-])cc1)Nc1ccc(Br)cc1	15.5
COc1cc(-c2nc3cnccn3c2Nc2ccc(C)cc2)ccc1O	-13.8
Cn1c(SCC(=O)Nc2ccccc2)nc2ccccc2c1=O	5.89
CCCCOc1ccc(CSC(=N)N)cc1Cl.Cl	-21.9
Cc1cc(OCC(=O)N(C)Cc2ccccc2)ccc1Cl	-10.4
O=c1[nH]c(COc2ccc(Br)cc2Cl)nc2ccccc12	9.57
COC(=O)Nc1ccc(N2CCOCC2)c(S(=O)(=O)N2CCOCC2)c1	-5.26
COC(=O)c1c(-c2ccc(OC)cc2)sc2cc3c(cc12)OCO3	8.58
O=C(OCn1nnc2ccccc2c1=O)c1ccc(S(=O)(=O)N2CCOCC2)cc1	8.81
CCCNC(=O)c1ccc(COc2ccc(C(C)(C)C)cc2)o1	-1.91

Structure (SMILES)	hERG current change (%, negative = inhibition) at 10uM [%]
COc1cccc2sc(Nc3nc(C)c(C(C)=O)s3)nc12	-4.11
CCOc1ccc(NC(=O)c2ccco2)cc1S(=O)(=O)N1CCCC1	-23
C/C(=N\NC(=O)c1cccc(S(=O)(=O)N2CCCCC2)c1)c1ccc(C)o1	-7.17
COc1ccc(C(=O)CCC(=O)NCCc2c[nH]c3ccccc23)cc1OC	21.2
COc1ccc(N2CCN(C(=O)c3ccc(C)c(NC(=O)C4=C(C)OCCS4)c3)CC2)cc1	-21.4
COc1ccccc1C(=O)N(Cc1ccc(Cl)cc1)C1CCS(=O)(=O)C1 (centres unmarked)	-38
CS(=O)(=O)c1ccc2nc(NC(=O)C3CC3)sc2c1	10.4
Cc1cc(C)c(OCCCCn2cnc3ccccc3c2=O)c(C)c1	8.39
CC(C)(C)n1nc2c(c1NC(=O)c1ccco1)CS(=O)C2 (centres unmarked)	19.6
COc1ccc(S(=O)(=O)N(C)CC(=O)N2CCCC2)cc1	16.5
Cc1cc(C)cc(N(CC(=O)NCCSCc2ccccc2)S(C)(=O)=O)c1	-6.49
COc1ccc(C(=O)NCc2cc(C(C)C)no2)cc1OC1CCN(C(C)C)CC1	-42.7
CCCCn1c(-c2ccsc2)nc2c1c(=O)[nH]c(=O)n2CCC	-16.1
CCOC(=O)N1CCN(C(=S)Nc2cccc(C)c2C)CC1	16.8
C/C(=N\NC(=O)c1nnn(-c2nonc2N)c1CSc1ccccc1)c1ccc2c(c1)OCO2	17.5
Cc1ccccc1CSc1nnc(C)c(=O)[nH]1	8.22
CCOC(=O)C(CCSC)NC(=O)CN.Cl (centres unmarked)	-6.89
CC(=O)Nc1cc2nc(C)n(Cc3ccccc3[N+](=O)[O-])c2nc1C	17.4
OC(CN1CCN(c2ccccc2)CC1)Cn1c2ccccc2c2ccccc21 (centres unmarked)	9.1
CC1=NN(C(=O)COc2ccccc2)C(O)(c2ccccc2)C1 (centres unmarked)	-8.49
COc1ccc(C2C(C(=O)c3ccc(C)o3)=C(O)C(=O)N2c2cc(C)on2)cc1OC (centres unmarked)	6.89
O=C(C1CC(=O)N(c2ccc3c(c2)OCCO3)C1)N1CCN(c2ccccc2)CC1 (centres unmarked)	-8.44

Structure (SMILES)	hERG current change (%, negative = inhibition) at 10uM [%]
O=C1CC(c2ccc(F)cc2)C2=C(CCCC2=O)N1 (centres unmarked)	6.3
C/C(=N\NC(=O)c1cccc(F)c1)c1cccc(NC(=O)c2ccc(F)cc2)c1	13
CCS(=O)(=O)N1CCN(S(=O)(=O)c2ccccc2[N+](=O)[O-])CC1	2.28
COc1ccccc1N1C(=O)[C@@H]2[C@H](C1=O)[C@H](C(=O)c1ccc(OC(C)=O)cc1)N1N=CC=C[C@@H]21	4.33
O=C(NCCS(=O)(=O)NCc1ccc2c(c1)OCO2)c1ccccc1	-20.2
CCOC(=O)N1CCN(C(=O)CC(C(=O)N2CCc3ccccc32)n2ccnc2)CC1 (centres unmarked)	-30.2
CC1CC1c1ccc(/C=C(\C#N)C(=O)Nc2cccc(Cl)c2Cl)o1 (centres unmarked)	-3.19
O=C1CN(C(=O)c2ccc(F)cc2)c2ccccc2N1	-4.95
C/C(=N/NC(=O)CNC(=O)c1ccncc1)c1ccc(Cl)cc1	-9.07
CCC(=O)Nc1ccc(C(=O)Nc2ccc(Br)cc2F)cc1	24.9
COc1ccc(C(=O)NC(=S)NCc2ccco2)cc1Br	13.4
Cc1ccc(S(=O)(=O)N2CCOCC2)cc1NC(=O)CN(C)C1CCS(=O)(=O)C1 (centres unmarked)	16.9
CCN1CCc2c(sc(NC(=O)c3ccc(S(=O)(=O)N4CCOCC4)cc3)c2C(N)=O)C1	-21.9
NNc1nc2c(F)cc(F)cc2s1	12.9
COc1cc(C(=O)NCC(=O)OCC(=O)c2cccc3ccccc23)cc(OC)c1OC	5.88
CCOC(=O)C[C@H]1c2cc(F)ccc2S(=O)(=O)N1c1ccccc1	13.9
CCCc1[nH]nc2c1C(Cc1ccccc1)C(C#N)=C(N)O2 (centres unmarked)	0.432
CCOC(=O)C(CC)Sc1nc(N)c(NC(=O)c2ccc(OC)c(OC)c2)c(=O)[nH]1 (centres unmarked)	-1.07
COc1ccc(C(C)(C)C)cc1NC(=O)COC(=O)C(C)C	7.26
Cc1csc(NC(=O)CSc2nnc(-c3cccnc3)o2)n1	9.7
